Screen size: about 290,000 compounds; about 2,100 (0.72%) were called active. The inconclusive results got no clear call from the source; some entries with a clear call stand among them for comparison. The call rests on the fitted dose curve; in most records, active means well fitted inhibition curve with a large enough effect; inconclusive means small, poorly fitted or top-dose-only effect, or effect the other way; inactive means flat fitted curve, though single readings scatter. Potencies beside an inconclusive call are fits to weak or partial responses and may not hold up.
Biological target: Fructose-bisphosphate aldolase (Giardia intestinalis (strain ATCC 50803 / WB clone C6)) (UniProt A8B2U2)
Assay: qHTS Assay for Inhibitors of Fructose-1,6-bisphosphate Aldolase from Giardia Lamblia; further: nearly all actives have a fitted effect of over 55% in size
Settings: purified Giardia FBPA; activity, negative = inhibition: at 59.6 µM (top of the series) unless noted
Outline: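 Giardia FBPA (40 nM reagent) was preincubated 10 min at RT with compound (up to 57.5 uM final), then substrate plus GAPDH/TPI/NAD/arsenate coupling system with diaphorase/resazurin was added; resorufin fluorescence (525/598 nm) was read after 20 min.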
On the % scale 0 is the no-effect control and ±100 the full control effect; potency means the concentration at half of the fitted maximal effect; tags describe the fitted curve by direction and shape.

UniProt A8B2U2, sequence (A8B2U2 whole entry, looked up): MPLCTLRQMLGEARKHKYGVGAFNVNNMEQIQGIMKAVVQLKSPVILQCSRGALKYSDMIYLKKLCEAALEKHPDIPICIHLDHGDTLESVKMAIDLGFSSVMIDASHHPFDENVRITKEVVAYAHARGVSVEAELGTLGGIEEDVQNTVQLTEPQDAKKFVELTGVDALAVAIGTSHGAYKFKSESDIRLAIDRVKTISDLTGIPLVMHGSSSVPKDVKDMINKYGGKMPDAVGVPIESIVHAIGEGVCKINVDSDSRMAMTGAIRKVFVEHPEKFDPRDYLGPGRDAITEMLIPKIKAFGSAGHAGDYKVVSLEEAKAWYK

Row | Structure (SMILES) | activity, negative = inhibition | Potency
1 | C=CCOc1ccccc1CN1CCC(n2nccc2NC(=O)C2CC2)CC1 | inconclusive: 31% [activator] | 
2 | Oc1c(C(Nc2nc3ccccc3s2)c2ccco2)ccc2cccnc12 (stereo unspecified) |  | active: 15.8 µM
3 | CN(C)/C=N/C(=S)Nc1ccccc1Cl |  | inconclusive: 19.9 µM [inhibitor, single point]
4 | COc1ccc(NC(=O)CCl)cn1 |  | active: 2.81 µM
5 | COc1cccc(C(=O)CSc2nnc(COc3cccc4cccnc34)o2)c1 |  | inconclusive: 6.29 µM [activator, single point]
6 | Cn1c(NN)nc2ccccc2c1=O |  | inconclusive: 35.4 µM [inhibitor, single point]
7 | COc1ccccc1CNC(=O)CCc1ccccc1 | inactive: 21% | 
8 | c1ccc(CCCN2CCN(c3ccccc3)CC2)cc1 |  | inconclusive: 39.8 µM [inhibitor, single point]
9 | CCOC(=O)CSc1nc2ccc(N3CCOCC3)cc2c(=O)n1Cc1ccccc1 |  | inconclusive: 3.15 µM [inhibitor, full curve]
10 | COc1cc(NC(=O)CSc2nnc(-c3cc(C)on3)o2)cc(OC)c1 |  | inconclusive: 15.8 µM [inhibitor, partial curve]
11 | Cc1ccc(S(=O)(=O)NC(C(=O)O)c2ccccc2)cc1 (stereo unspecified) | inactive: -1.14% | 
12 | O=C1NC(=O)N(c2ccccc2)C(=O)/C1=C\c1ccc([N+](=O)[O-])s1 |  | inconclusive: 15.8 µM [inhibitor, single point]
13 | CCCC1CCC(C2=N/C(=C\c3ccc(OC)c(OC)c3)C(=O)O2)CC1 (stereo unspecified) | inactive: -0.217% | 
14 | O=C(c1ccc2c3c(cccc13)CC2)C1CCCN(Cc2ccccn2)C1 (stereo unspecified) | inactive: -1.95% | 
15 | O=C(N/N=C1\C/C(=N\NC(=O)c2ccncc2)c2ccccc21)c1ccncc1 |  | inconclusive: 0.5 µM [inhibitor, full curve]
16 | O=C(N/N=C/c1cc(Cl)cc([N+](=O)[O-])c1O)c1ccccc1NS(=O)(=O)c1cccs1 |  | inconclusive: 14.1 µM [activator, partial curve]
17 | Cc1ccc(N(CC(=O)Nc2cc(C)cc(C)c2)S(=O)(=O)c2c(C)noc2C)cc1 | inactive: -7.6% | 
18 | O=S(=O)(NC1=NCCC1)c1cccc(NS(=O)(=O)c2ccc(OC(F)(F)F)cc2)c1 | inactive: 10.2% | 
19 | O=C(COC(=O)c1ccc(Oc2ccccc2)cc1)Nc1nnc(-c2ccccc2)o1 |  | inconclusive: 15.8 µM [activator, partial curve]
20 | CSc1nc2ncnc(N)c2[nH]1 |  | inconclusive: 25.1 µM [inhibitor, single point]
21 | Cn1c(SCC(=O)Nc2nccs2)nnc1-c1ccc(S(=O)(=O)N2CCCC2)cc1 | inactive: 7.46% | 
22 | O=C(NN=C1C2CC3CC(C2)CC1C3)c1ccccc1O |  | inconclusive: 17.7 µM [inhibitor, single point]
23 | COC(=O)C(NC(=O)c1ccco1)(Nc1cc(C)ccn1)C(F)(F)F (stereo unspecified) |  | inconclusive: 19.9 µM [activator, single point]
24 | O=C(O)CCNC(=O)/C(=C\c1ccco1)NC(=O)c1ccco1 |  | inconclusive: 28.2 µM [inhibitor, single point]
25 | COc1cc(OC)c2cc(-c3ccncc3)cnc2c1 |  | inconclusive: 39.7 µM [inhibitor, partial curve]
26 | O=c1[nH]c(CSc2cccc[n+]2[O-])nc2ccccc12 |  | active: 14.1 µM

Row | Structure (SMILES) | activity, negative = inhibition | Potency
27 | O=S(=O)(Nc1ccccc1O)c1cccc2cccnc12 | inactive: -25.2% | 
28 | COC(=O)CCC(=O)N1CCOCCOCCN(C(=O)CCC(=O)OC)CCOCCOCC1 | inactive: 6.97% | 
29 | O=C(NC(=S)Nc1ccccc1[N+](=O)[O-])c1ccccc1Cl |  | inconclusive: 15.8 µM [inhibitor, partial curve]
30 | CC(C)(C)S(=O)(=O)c1cnc2c(-c3ccsc3)cnn2c1N | inactive: 2.91% | 
31 | CC(C)Nc1ncnc2c1cnn2-c1ccccc1 | inactive: -20.3% | 
32 | CC1(C)CC(=O)C2=C(C1)OC1=C(C(=O)CC(C)(C)C1)C2c1ccc(O)c([N+](=O)[O-])c1 | inactive: 6.56% | 
33 | Nc1ccc(Nc2ccccc2N)cc1 |  | inconclusive: 12.6 µM [inhibitor, single point]
34 | COCc1cc(=O)n2[nH]c(-c3ccsc3-n3c(C)ccc3C)cc2n1 | inactive: -28.8% | 
35 | Cc1cc(NC(=O)c2ccc(N3CCCC3)c([N+](=O)[O-])c2)no1 | inactive: 1.3% | 
36 | Cc1cccc(CN2CCc3c([nH]c4ccccc34)C2CC(C)C)n1 (stereo unspecified) | inactive: 11.1% | 
37 | Cc1ccc2nc(C(O)C(O)c3nc4ccc(C)cc4[nH]3)[nH]c2c1 (stereo unspecified) |  | inconclusive: 14.1 µM [activator, partial curve]
38 | C=CCc1cc(C)ccc1OCCOCCN1CCN(C)CC1 |  | active: 15.8 µM
39 | c1ccc(CN2CCNCC2)nc1 |  | inconclusive: 28.2 µM [inhibitor, partial curve]
40 | Cc1ccc(-n2ncc3c(=O)[nH]c(SCC(=O)N4CCOCC4)nc32)cc1 | inactive: -14.5% | 
41 | S=C(NCc1ccc(Cl)cc1)Nc1ccccc1 | inactive: -4.37% | 
42 | CCCNC(=O)c1c(O)c2cccc3c2n(c1=O)CCC3 | inactive: 1.37% | 
43 | CC(C)(C)c1cc[n+](C2=C([O-])c3ccccc3C(=O)/C2=N\S(=O)(=O)c2cccs2)cc1 |  | inconclusive: 0.141 µM [inhibitor, full curve]
44 | C#CCNC(=O)C1=C[C@@H](c2cn(C(C)=O)c3ccccc23)C[C@@H](OCc2ccc(CO)cc2)O1 | inactive: -16% | 
45 | CC(C)c1cccc(OCCN2CCCC2)c1 |  | inconclusive: 22.4 µM [inhibitor, single point]
46 | O=C1c2cccc(OCC(=O)N3N=C(c4cccs4)CC3c3ccc(F)cc3)c2CCN1Cc1cccnc1 (stereo unspecified) | inactive: 8.87% | 
47 | CCc1ccc(CN2CCN(Cc3ccc(SC)cc3)CC2)cc1 |  | active: 17.7 µM
48 | Cc1ccc(CNCC(=O)Nc2cccc(S(=O)(=O)NC3=NCCCCC3)c2)cc1 |  | inconclusive: 17.7 µM [inhibitor, partial curve]
49 | Cc1ccc(-n2c(-c3ccccc3)c[n+]3c2CCC3)cc1 | inactive: 5% | 
50 | COc1ccc(OC)c(NC(=O)CCN2CCN(C/C=C/c3ccccc3)CC2)c1 |  | inconclusive: 28.2 µM [inhibitor, single point]
51 | Cc1nc(SC(C)C(=O)Nc2cccc(C(F)(F)F)c2)c2c(C)c(C(=O)O)sc2n1 (stereo unspecified) |  | inconclusive: 15.8 µM [activator, single point]
